The list shows a part of the results.
tested on: PF3D7_0420300 AP2 domain 1 (GST-tagged); assay: gcPBM binding intensity (ln(normalized median fluorescence intensity)); higher = stronger DNA binding
In short: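 After 1 h on an Agilent 4 × 180k array of primer-extended double-stranded 36-bp intergenic genomic probes and negative controls, bound GST-tagged P. falciparum DNA-binding domains were detected with Alexa488 anti-GST antibody and scanned at 488 nm. The domains had been expressed in E. coli, and binding took place in 1× PBS with 1% milk, 0.2 mg/ml BSA, 0.5% salmon testes DNA and 0.03% Triton X-100. Binding intensity is the highest Masliner-normalised natural-log median intensity across replicate spots of either probe orientation.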

Sequence	gcPBM binding intensity (ln)
ATATTTAACAGGTTAAAAATATAAACAAATAAATAA [CACACA_negctrl_site907]	9.22
ATTTTTTTTTTTTTTTTTTTTTTTTTTTAATCTGGA [CACACA_negctrl_site1347]	8.86
GAGAGGATAGTTCACAGTACTCAGTAACTCTACGGA [XGTACX_site4875]	9.22
ATATTTTGTTATGTAGATGTTGGTAGGAATTTTGGT [CACACA_negctrl_site1104]	9.45
AATAAATAAATAAATAAAACAAAGGGATTACATACA [TGCATGCA_negctrl_site513]	9.43
CACAACATATATATATATATATATATATATATGTGT [CACACA_negctrl_site28]	9.06
TACTTTTTAGGAAAGTGTACAAGCATATAAGGAATA [XGTACX_site2834]	9.2
TTAAAAAAATATTGAAGTACACACATTATAAACTTT [XGTACX_site3548]	9.31
ATATAATAAAATTAATGTACATATATGTATTATATA [XGTACX_site3283]	9.24
TTTCATATATATGAAACACACAAAGGAAAAAAAATT [CACACA_site4144]	9.49
ACAAGTTTATTTGTTGCACACATATAAGTAGAGAAA [CACACA_site8994]	9.3
AAAAAAAAAAAACACACACACATAGACCTCCAATAG [CACACA_site3562]	9.95
AACATAATCTCATATACACACAAAAATATTGAAATA [CACACA_site7085]	9.62
GCTCATATGACAACAACACACAAAAAAATAAAATGA [CACACA_site714]	9.48
ATATAATAACAAAAGGTGCGCATTAAGACAAAAAAA	9.72
TTTTTCCCCCTTTTTTTGATTTTTATCTTAATTCTA [TGCATGCA_negctrl_site287]	9.48
TATTATATTGTTCATTTACACTTTCATTTTAAAAAA [CACACA_negctrl_site260]	9.15
TTTTTTAAAATAATAGGTACACATAAAAAAAAAAAA [XGTACX_site2517]	9.1
AATGATGTTGTATTGTTTCGATATAACATCTAATTT [GTGCAC_negctrl_site309]	9.1
TTTTTTCATTTTTTATTTTTTTATTTTTTACATATT [GTGCAC_negctrl_site137]	9.53
AAGGATTATTTTAATCGTACATGTGTAAATAATATA [XGTACX_site6177]	9.17
TTATTTATTTTCATATGTACTTATTTATAGAGGTTG [XGTACX_site5599]	9.27

Sequence	gcPBM binding intensity (ln)
CATACATACATACATACACACATATATATATATATG [CACACA_site1995]	9.67
TATATATATAGACACACACACATATAAATAAATAAA [CACACA_site444]	10.1
AAAAAAAAATAATATACACACTCCAATATAAAAAAT [CACACA_site3958]	9.75
TGTGTATTATAAACATGTACATAAAAATACGATATT [XGTACX_site3643]	9.53
CGCACTAAAAAACACACACACACACCCATATATATA [CACACA_site4152]	10.3
TTAGGATATTTATTTCGTACATATATTTTTAATTGT [XGTACX_site582]	9.12
AATTTTTATATAATTTAACACACATTTCATATAAAA [CACACA_site9018]	9.27
TACTTCATATAATTAGCACACAATAATTTCTCATTT [CACACA_site2872]	9.42
TATAAATTATTTATCACACATAAAACAAAAATAAGA [CACACA_site5493]	9.44
ATATATATTAAAAATAGTACATATAATAAAAATCAT [XGTACX_site4265]	9.48
TACATATTCCTACAAATGTATAAATTATAAATATTA [XGTACX_negctrl_site30]	8.9
AACGATATAGGTACTACACACATTATGTCATCCTAT [CACACA_site7205]	9.73
ATATGAAATATATGTAGTACACATAATTAAAAGTAG [XGTACX_site6490]	9.38
TGTATATGTTTAATTAGTACATATAAAGTAACAATA [XGTACX_site1207]	9.24
AATAATATACCTCTTGTGCACATATTAAAAGTTCAT [GTGCAC_site9536]	9.4
TTCGTCTTTTTTCTCACACACCCTTTTTATTAAAAG [CACACA_site7225]	9.59
AGAATTAAAATAAAGGTGCATTTTTTTGTTTCATGT	9.31
AAAGAATACATATATTGTACATATATATATACCGTT [XGTACX_site6250]	9.48
ATAATACAAAACACAAGTACATAAATTAAAAAGATG [XGTACX_site7839]	9.73
TTCATTCATTTTATTACACACAAAAAAAAAAAAAAA [CACACA_site3680]	9.07
AGTTATTTTATAGAATATGAATAATTTTACTTTTCA [XGTACX_negctrl_site403]	9.06
AAAAAAAAAGGTACTACACACTATTCTCAATAGAAA [CACACA_site6193]	9.46

Sequence	gcPBM binding intensity (ln)
AATTTCATTTTACTTATCTAATATTTATAATCTTTT [CACACA_negctrl_site636]	9.27
AAGGTGGTTATTAAATGTACACAGACATATACAAAA [XGTACX_site3007]	9.33
AGGTAGAAAAAAGACACACACATTATATATATATAT [CACACA_site4367]	9.8
ATATGCTACATTATATGTACACACATATACATATAT [XGTACX_site1656]	9.51
TAATATAAAGAAATATCAATAATTTGGGCAAATGCC [GTGCAC_negctrl_site621]	9.1
TTTTATGCATGTGAAGTGCAAAATAAAAAATAAAAT [GTGCAC_site9612]	9.14
TATATTTGTTAATTTTGTACGTATGGATATACATAA [XGTACX_site5100]	9.19
TATAAATATAGAATTACACACAATGTTCTATAAATA [CACACA_site7508]	9.36
GATATGTTTTCCTAGGTTCATGATGATAGGTAGTTT [XGTACX_negctrl_site217]	9.57
TTTGTGGTTACATGTGCACACACTTATTTCGTTCTT [CACACA_site1435]	9.8
AATATATAAATTGACACACACATATATACATATATA [CACACA_site1213]	9.79
TGTTAATATATCATTATGTTATAGGTTCAGCTGGGA [CACACA_negctrl_site401]	9.05
TATTTACATTTATGTGCACACATTCCATTTGAAAGT [CACACA_site1954]	9.38
CGGACATACATAGGAACATGCAAAATTTTTTATTTT [TGCATGCA_site575]	9.18
AATAGAAAAAAAAAATGTACACATATAAAAGCATAT [XGTACX_site6306]	9.77
TATTTTCTTTTTCTTGTACACACATAATATGGATGA [CACACA_site8168]	9.53
ATACATATATACATATGTACATATATATATATATAT [XGTACX_site8206]	9.3
AAAAAAATAATTTGTAGTACGATTCAATGAAAAGGC [XGTACX_site1287]	9.53
CCCACAAAGGAATATACACACATATATATATATATA [CACACA_site4091]	9.4
TAAATATTTTTTTAGACACACATATATCTATGATAT [CACACA_site1107]	9.11
TTGAAAATGAAAAAATGTACTTAAAAAAAAGGAACA [XGTACX_site8664]	9.54
TCTTTGAATTTTTTAACACACACATGGGTGGATATA [CACACA_site8474]	9.53

Sequence	gcPBM binding intensity (ln)
ATAAAATTGTATAACTGTACATATATATATATATAT [XGTACX_site5596]	9.26
ATGCTATATTAAAAACGTACAAACTGTTTAGAAAAA [XGTACX_site8943]	9.12
GGATATAACAGACACACACACACATATAAATATATT [CACACA_site7866]	10.1
TTTTTTCTTAAAGACATATATTTATTTGGTAAAACA [XGTACX_negctrl_site243]	8.85
CAAAATAAAAATTAATGTACATAAAAAATGAATATA [XGTACX_site1085]	9.39
ACAGGAAAAAACAATTGTACATGTATATATATATAT [XGTACX_site7677]	9.58
ATATATATATATATATGTACATATTTTATTTGAAAT [XGTACX_site7411]	9.1
AAGACAATATATGCAGTGCATATACATACATATATA	9.18
GCATAATATACTCTTACACACCATTTCTAAATACAT [CACACA_site4912]	9.76
AAAAAAAAAAAAAAAAGTACGTATTTTTTTTAAAAT [XGTACX_site2654]	8.91
TTGTTATATTACAGTAGTACATTTAAAATCTACTAC [XGTACX_site2620]	9.05
TTTTTTTTTTTTTTTTGTACGTAAAAAAATATATAC [XGTACX_site1290]	8.75
AATATTTATACTATAACACACATACAGACAAAAAAA [CACACA_site6396]	9.7
TTACATTATATACATACACACCCACCCACAAAAAAA [CACACA_site8187]	10.1
ATTTTTATTTACAACCCCAAAAAGGAAAAACATAAA [CACACA_negctrl_site1169]	9.17
ATAATATCATCAAACGCACACATACATAAATATATT [CACACA_site5230]	9.55
ACATATTATATGAATACACACAAAAACTTATCGGTA [CACACA_site3439]	9.79
TATTTTTATAATATATGTACATATATATATATATTA [XGTACX_site5343]	9.17
AAATAATTAGAAATAGTGCACATAATTAAGGGATAC	9.74
TAGAAATATATAAATTGTACATGTTTGTATAATATA [XGTACX_site2097]	9.22
TGGATTTTGTATTAATGTACATATATATATATATAT [XGTACX_site4442]	9.29
TATATTATTTATTAGACACACATTATTAATATATTT [CACACA_site1078]	9.28
